PubChem BioAssay AID686979 (National Center for Advancing Translational Sciences (NCATS), 2013)
Among all 420,000 compounds or so, about 50,000 (12%) were called active. The shares of active, inactive and inconclusive entries below differ from those in the screen. The call rests on the fitted dose curve; in most records, active means well fitted inhibition curve with a large enough effect; inconclusive means small, poorly fitted or top-dose-only effect; inactive means flat fitted curve, though single readings scatter. No potency is given beside an inconclusive call; the fits are too rough.

Experiment: qHTS for Inhibitors of human tyrosyl-DNA phosphodiesterase 1 (TDP1): qHTS in cells in presence of CPT; further: nearly all actives have a fitted effect of over 55% in size
Details: chicken DT40 Tdp1-/-;hTDP1 cells + 20 nM CPT, ATP luminescence, 48 h; activity change, negative = growth inhibition: at 46.2 µM (top of the series) unless noted
Procedure, shortened: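 Chicken DT40 Tdp1-/- cells stably complemented with human TDP1 were seeded at 400 cells/well in medium containing 20 nM camptothecin, exposed to pin-transferred compounds, and grown at 37 °C for at least 48 hr. Viability was read as ATP luminescence.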
On the % scale 0 is the no-effect control and ±100 the full control effect; potency means the concentration at half of the fitted maximal effect; tags describe the fitted curve by direction and shape.

Row | SMILES | Potency | activity change, negative = growth inhibition
1 | COc1ccc(O)c(-c2cc(-c3cccc(Br)c3)n[nH]2)c1 | inconclusive [inhibitor, single point] | 
2 | CCNC(=O)CC1C(=O)N(c2ccc(C)cc2)C(=O)N1Cc1ccc(C)cc1 (stereo not given) |  | inactive: -5.85%
3 | CC(=O)NC(c1cccc(F)c1)c1nc(-c2cccs2)cs1 (stereo not given) |  | inactive: -18.2%
4 | COc1cc(NC(=O)c2ccc3c(c2)OCO3)c2ncccc2c1 | inconclusive [inhibitor, single point] | 
5 | Cn1c(/C=C/c2ccccc2[N+](=O)[O-])nc2ccccc2c1=O | inconclusive [inhibitor, single point] | 
6 | O=C(Nc1ccc(F)cc1)N1CCN(CCc2ccccc2)CC1 |  | inactive: -4.45%
7 | CCOc1ccc(Cl)cc1S(=O)(=O)n1nnc2ccccc21 | active: 16.4 µM | 
8 | O=S(=O)(Nc1cccc(-c2nnco2)c1)c1ccc(F)cc1F |  | inconclusive: 5.18% [inhibitor]
9 | Cc1ccc(-c2c(C#N)c(N)n(-c3ccccc3)c(=O)c2C#N)cc1 |  | inactive: -13.7%
10 | Nc1ccccc1-c1ccc([N+](=O)[O-])cc1 |  | inactive: 2.29%
11 | Cc1nc2sccn2c(=O)c1S(=O)(=O)NCC1CCN(Cc2ccccc2Cl)CC1 |  | inactive: -13.7%
12 | CCOC(=O)CSC1=Nc2ccccc2C2=NC(CC(=O)NCc3ccc(OC)cc3)C(=O)N12 (stereo not given) |  | inactive: 1.83%
13 | COc1ccc(-c2c(C)cc3oc(=O)cc(-c4ccccc4)c3c2C)cc1F | inconclusive [inhibitor, single point] | 
14 | COCc1nc2c([nH]1)c(=O)n(C)c(=O)n2CC(C)C | inactive | 
15 | CCOc1ccc(N(C(=O)c2ccc(C)cc2)S(=O)(=O)c2ccc3c(c2)n(C)c(=O)n3C)cc1 |  | inactive: -15.1%
16 | COc1ccc(C(=O)OCC(=O)Nc2cccc(S(=O)(=O)N3CCCCCC3)c2)cc1[N+](=O)[O-] | inconclusive [inhibitor, partial curve] | 
17 | COc1ccc(CC(=O)Nc2nc(-c3ccccc3)c(C(C)=O)s2)cc1OC | inconclusive [inhibitor, partial curve, poor fit] | 
18 | CSc1sc(C(=O)NC(=O)NCc2ccncc2)c(C)c1-c1ccon1 | inconclusive [inhibitor, single point] | 
19 | Cc1coc2c(C)c3oc(=O)c(CCC(=O)N4C[C@H]5C[C@@H](C4)c4cccc(=O)n4C5)c(C)c3cc12 | inconclusive [inhibitor, single point] | 
20 | O=C(/C=C/c1ccc(OCc2ccccc2)c(OCc2ccccc2)c1)c1cccnc1 | inconclusive [inhibitor, single point] | 
